From the supplement of paper PMC12645437, “Orthogonal IMiD-Degron Pairs Induce Selective Protein Degradation in Cells” (ACS Chemical Biology, 2025)
This is one part of the list.

B1: Q9UKT9 (peptide)
chain: FCCPVCGAQFTQKGNLLRHIKL
B2: Q9UKT9 (peptide)
chain: FRCNICGAAFTQKGNLLRHIKL
B3: Q9UKT9 (peptide)
chain: FCCDVCGATFTQKGNLLRHIKL
B4: Q9UKT9 (peptide)
chain: FMCEVCGAPFTQKGNLLRHIKL
B5: Q9UKT9 (peptide)
chain: FWCNQCGAWFTQKGNLLRHIKL
B6: Q9UKT9 (peptide)
chain: FWCEQCGAYFTQKGNLLRHIKL
B7: Q9UKT9 (peptide)
chain: FICPICGRKFTQKGNLLRHIKL
B8: Q9UKT9 (peptide)
chain: FQCDQCGASFTQKGNLLRHIKL
B9: Q9UKT9 (peptide)
chain: FKCNQCGRCFTQKGNLLRHIKL
B10: Q9UKT9 (peptide)
chain: FDCNICGAGFTQKGNLLRHIKL
B11: Q9UKT9 (peptide)
chain: FECNVCGARFTQKGNLLRHIKL
B12: Q9UKT9 (peptide)
chain: FCCNVCGAWFTQKGNLLRHIKL
B13: Q9UKT9 (peptide)
chain: FWCEVCGAMFTQKGNLLRHIKL
B14: Q9UKT9 (peptide)
chain: FKCEICGHIFTQKGNLLRHIKL
B15: Q9UKT9 (peptide)
chain: FDCPICGAHFTQKGNLLRHIKL
B16: Q9UKT9 (peptide)
chain: FCCEVCGAFFTQKGNLLRHIKL
B17: Q9UKT9 (peptide)
chain: FKCDVCGALFTQKGNLLRHIKL
B18: Q9UKT9 (peptide)
chain: FWCEQCGACFTQKGNLLRHIKL
B19: Q9UKT9 (peptide)
chain: FVCNQCGRAFTQKGNLLRHIKL
B20: Q9UKT9 (peptide)
chain: FMCPVCGAWFTQKGNLLRHIKL
B21: Q9UKT9 (peptide)
chain: FQCEICGRQFTQKGNLLRHIKL
B22: Q9UKT9 (peptide)
chain: FWCEICGRDFTQKGNLLRHIKL
B23: Q9UKT9 (peptide)
chain: LACPICGFCCTQKGNLLRHIKL
B24: Q9UKT9 (peptide)
chain: FLCEICGRSFTQKGNLLRHIKL
B25: Q9UKT9 (peptide)
chain: FHCDVCGAKFTQKGNLLRHIKL
B26: Q9UKT9 (peptide)
chain: FKCNICGANFTQKGNLLRHIKL
B27: Q9UKT9 (peptide)
chain: FMCPICGAHFTQKGNLLRHIKL
B28: Q9UKT9 (peptide)
chain: FICPICGHMFTQKGNLLRHIKL
B29: Q9UKT9 (peptide)
chain: FHCEVCGAHFTQKGNLLRHIKL
B30: Q9UKT9 (peptide)
chain: FGCPICGRAFTQKGNLLRHIKL
B31: Q9UKT9 (peptide)
chain: FFCNQCGAFFTQKGNLLRHIKL
B32: Q9UKT9 (peptide)
chain: FFCSVCGHKFTQKGNLLRHIKL
B33: Q9UKT9 (peptide)
chain: FVCPQCGAMFTQKGNLLRHIKL
B34: Q9UKT9 (peptide)
chain: FGCDICGAPFTQKGNLLRHIKL
B35: Q9UKT9 (peptide)
chain: FMCNVCGAWFTQKGNLLRHIKL
B36: Q9UKT9 (peptide)
chain: LGCEICGFACTQKGNLLRHIKL
B37: Q9UKT9 (peptide)
chain: FACPICGHQFTQKGNLLRHIKL
B38: Q9UKT9 (peptide)
chain: LFCPICGFNCTQKGNLLRHIKL
B39: Q9UKT9 (peptide)
chain: LICEICGFGCTQKGNLLRHIKL
B40: Q9UKT9 (peptide)
chain: FDCEICGAIFTQKGNLLRHIKL
B41: Q9UKT9 (peptide)
chain: FDCPICGRDFTQKGNLLRHIKL
B42: Q9UKT9 (peptide)
chain: FICNVCGAAFTQKGNLLRHIKL
B43: Q9UKT9 (peptide)
chain: FICEVCGAFFTQKGNLLRHIKL
B44: Q9UKT9 (peptide)
chain: LECEICGFECTQKGNLLRHIKL
B45: Q9UKT9 (peptide)
chain: FHCNICGAMFTQKGNLLRHIKL
B46: Q9UKT9 (peptide)
chain: LTCPICGFFCTQKGNLLRHIKL
B47: Q9UKT9 (peptide)
chain: LYCNQCGFDCTQKGNLLRHIKL
B48: Q9UKT9 (peptide)
chain: FHCEICGAWFTQKGNLLRHIKL
B49: Q9UKT9 (peptide)
chain: FFCPICGAYFTQKGNLLRHIKL
B50: Q9UKT9 (peptide)
chain: FMCNQCGHYFTQKGNLLRHIKL

Biological target: no compound (DMSO)
Assay: log2 fold change of degron read counts, EGFP-low vs EGFP+ sorted cells; higher = lower degron-EGFP level without compound (poor expression or instability)
Conditions: compound: DMSO control; 18 h
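Also: jurkat cells carrying a lentiviral library of mutant zinc finger degrons fused to EGFP plus mCherry, mCherry+ cells FACS sorted, degron abundance counted by next-generation sequencing.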

| Sequence | log2 fold change of degron read counts |
| --- | --- |
| B1 | -0.106 |
| B2 | -0.0337 |
| B3 | -2.02 |
| B4 | -0.836 |
| B5 | 1.75 |
| B6 | 0.103 |
| B7 | -0.8 |
| B8 | -2.69 |
| B9 | -1.15 |
| B10 | -0.605 |
| B11 | -0.862 |
| B12 | 0.446 |
| B13 | -0.687 |
| B14 | -1.37 |
| B15 | -1.25 |
| B16 | -0.716 |
| B17 | -2.11 |
| B18 | -0.592 |
| B19 | -0.71 |
| B20 | 0.662 |
| B21 | -2.26 |
| B22 | -1.1 |
| B23 | 0.912 |
| B24 | -0.989 |
| B25 | -1.13 |

| Sequence | log2 fold change of degron read counts |
| --- | --- |
| B26 | -0.593 |
| B27 | -0.502 |
| B28 | 0.259 |
| B29 | -2.11 |
| B30 | -0.174 |
| B31 | 1.35 |
| B32 | -0.164 |
| B33 | -1.12 |
| B34 | -0.311 |
| B35 | 0.268 |
| B36 | 0.398 |
| B37 | -0.119 |
| B38 | 1.44 |
| B39 | 0.125 |
| B40 | -0.483 |
| B41 | -0.236 |
| B42 | -1.23 |
| B43 | -0.116 |
| B44 | -0.906 |
| B45 | -0.697 |
| B46 | 1.34 |
| B47 | -0.283 |
| B48 | -0.447 |
| B49 | 0.389 |
| B50 | 0.019 |
